# From PMC4336329 (PLoS ONE, 2015)
# Among all 310,000 compounds or so, about 2,200 (0.71%) showed an effect of 50% or more. The effect is printed as a negative number. This is one part of the list.
# Biological target: human ether-à-go-go-related gene (hERG) potassium channel (human, UniProt Q12809)
# Assay: primary screen, population patch clamp on CHO cells stably expressing hERG
# Sequence of human ether-à-go-go-related gene (hERG) potassium channel (Q12809 whole entry, looked up): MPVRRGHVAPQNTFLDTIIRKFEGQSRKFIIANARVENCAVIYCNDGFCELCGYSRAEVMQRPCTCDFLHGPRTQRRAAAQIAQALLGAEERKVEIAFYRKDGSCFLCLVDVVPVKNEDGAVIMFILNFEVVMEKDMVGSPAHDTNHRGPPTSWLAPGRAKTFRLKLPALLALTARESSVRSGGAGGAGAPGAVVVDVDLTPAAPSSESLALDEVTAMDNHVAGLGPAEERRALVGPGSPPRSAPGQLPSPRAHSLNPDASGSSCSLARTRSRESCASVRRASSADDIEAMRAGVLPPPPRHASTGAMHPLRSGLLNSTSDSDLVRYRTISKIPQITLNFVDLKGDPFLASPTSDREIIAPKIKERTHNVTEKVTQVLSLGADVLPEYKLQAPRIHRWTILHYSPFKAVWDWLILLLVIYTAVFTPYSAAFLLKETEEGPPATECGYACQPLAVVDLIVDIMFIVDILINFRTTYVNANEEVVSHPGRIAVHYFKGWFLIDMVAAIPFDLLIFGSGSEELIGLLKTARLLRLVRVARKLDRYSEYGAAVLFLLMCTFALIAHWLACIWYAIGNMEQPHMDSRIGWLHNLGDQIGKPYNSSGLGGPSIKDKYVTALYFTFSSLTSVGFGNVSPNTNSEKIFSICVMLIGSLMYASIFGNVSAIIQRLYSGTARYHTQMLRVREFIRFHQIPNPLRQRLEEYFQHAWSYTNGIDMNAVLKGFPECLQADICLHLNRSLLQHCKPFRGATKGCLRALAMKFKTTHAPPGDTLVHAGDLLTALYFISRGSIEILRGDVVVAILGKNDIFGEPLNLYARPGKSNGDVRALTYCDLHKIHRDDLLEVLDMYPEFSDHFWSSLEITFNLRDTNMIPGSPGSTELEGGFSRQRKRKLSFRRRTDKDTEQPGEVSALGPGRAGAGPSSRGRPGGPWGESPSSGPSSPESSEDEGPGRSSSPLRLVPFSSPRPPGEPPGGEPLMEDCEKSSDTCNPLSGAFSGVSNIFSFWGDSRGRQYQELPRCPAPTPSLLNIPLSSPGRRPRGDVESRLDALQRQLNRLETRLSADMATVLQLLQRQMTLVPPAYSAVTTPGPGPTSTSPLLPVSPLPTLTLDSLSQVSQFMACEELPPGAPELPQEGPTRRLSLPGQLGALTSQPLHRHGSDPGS
row,SMILES,"hERG current change (%, negative = inhibition) at 1uM"
1,Cc1ccc(C)c(NC(=O)Cn2nnc(C(=O)NCc3ccco3)c2N)c1,3.02%
2,CCN(C(=O)c1cc2c(=O)n3ccccc3nc2n1CCCOC)C1CCCCC1,2.38%
3,Cc1ccc(Sc2nc(C)c([N+](=O)[O-])c(C)c2C#N)cc1,13%
4,O=C1C2ON(c3ccccc3)C(c3ccccn3)C2C(=O)N1c1ccc(Br)cc1 (stereo not shown),6.82%
5,CCNc1nc(NCC)nc(N(n2cnnc2)S(=O)(=O)c2ccc(C)cc2)n1,-2.64%
6,COc1cc(O)c(C(CCN2CCCC2)c2cc(OC)c(OC)c(OC)c2)c(OC)c1 (stereo not shown),11.6%
7,CN(CC(=O)Nc1ccccc1C(F)(F)F)C(=O)C1=COCCO1,12.4%
8,CC1CC(Nc2cccc(O)c2)=CC(=O)O1 (stereo not shown),3.57%
9,O=C(C1CC1)N1CCc2cc(Br)cc(S(=O)(=O)NCCCN3CCCCC3)c21,6.97%
10,CSc1ccccc1NC(=O)c1cccs1,3.13%
11,NC(=O)C1CCN(C(=O)CSCc2ccccc2Cl)CC1,9.01%
12,Cc1ccc(-n2c(C)nnc2SCC(=O)NNC(=O)c2ccco2)cc1,15.2%
13,O=C(N/C(=C/c1cccc([N+](=O)[O-])c1)C(=O)N1CCCCC1)c1ccco1,-3.64%
14,Cc1ccc(NC(=O)CSc2nc3[nH]ncc3c(=O)[nH]2)c(C)c1,9.49%
15,COc1ccc(CN2CC(C(=O)NCCC3=CCCCC3)CC2=O)cc1 (stereo not shown),7.38%
16,CC(C)(C#N)C(C)(C)c1nn[nH]n1,-3%
17,CCNC(=S)NCCN1CCOCC1,13.4%
18,COCCn1c(N)c(C(=O)NS(=O)(=O)c2ccc(C)cc2)c(=O)[nH]c1=O,10.8%
19,O=C(CCn1c(=O)oc2ccccc21)NCCCN1CCOCC1,15.2%
20,OCCCn1c(CCNc2nc(-c3ccc(F)cc3)cs2)nc2cc(C(F)(F)F)ccc21,-0.5%

row,SMILES,"hERG current change (%, negative = inhibition) at 1uM"
1,COc1ccccc1N1CCN(Cc2ccc(-c3ccccc3[N+](=O)[O-])o2)CC1,-0.996%
2,O=C(Cc1cccc2ccccc12)NNC(=O)c1cccs1,8.9%
3,O=C1CCN(CCc2ccccc2)CCN1[C@H](CSc1ccc(Br)cc1)Cc1ccccc1,-25.8%
4,Cc1cc(C(=O)OCC(=O)N2C(C)CCCC2C)c(C)o1 (stereo not shown),9.75%
5,Cc1nc2c(C(=O)N3CCOCC3)cnn2c(C)c1Cc1cccc(Cl)c1,-7.36%
6,Cc1csc(NC(=O)C2CCCN(S(=O)(=O)c3cccnc3)C2)n1 (stereo not shown),0.335%
7,N#C/C(=C\Nc1ccc(F)c(Cl)c1)C(=O)C1CC1,12.4%
8,O=C(Nc1ccc(Cl)cc1C(=O)c1ccccc1Cl)c1ccco1,9.76%
9,Cc1nc2cncc(Br)c2n1C,4.07%
10,COc1cc(C(=O)NC(C)C2CC3CCC2C3)ccc1OC(F)F (stereo not shown),4.12%
11,COC(=O)[C@H]1C[C@@H]1[C@H](N)c1ccccc1.Cl,7.65%
12,O=C(Nc1ccccc1C(=O)O)c1ccc(N2C(=O)C3CC=CCC3C2=O)cc1 (stereo not shown),18%
13,Cc1ccccc1C1CC(c2cccs2)=NN1S(C)(=O)=O (stereo not shown),8.14%
14,Nn1c(SCc2c(F)cccc2F)nnc1-c1ccccn1,9.31%
15,COCCCNC(=O)c1cccc2c(=O)c(C)c(-c3ccccc3)oc12,6.57%
16,O=C(NCCN1CCN(C(=O)c2cccc(Br)c2)CC1)C(=O)NCc1ccccc1,-11.2%
17,O=C(CN1CCN(Cc2ccccc2Cl)C1=O)NCc1ccco1,4.94%
18,CCOC(=O)C1C(=O)CC(C)(O)C(C(=O)OCC)C1c1ccc(Br)cc1 (stereo not shown),-2.02%
19,CCNC(=S)N1CCCC(C(N)=O)C1 (stereo not shown),12.3%
20,CC(C)[C@H](NC(=O)c1c(F)cccc1F)C(=O)N1CCN(c2ccc(F)cc2)CC1,-6.13%

row,SMILES,"hERG current change (%, negative = inhibition) at 1uM"
1,Cc1ccc(-c2nnn(CC(=O)N(Cc3ccccc3)C(C(=O)NC(C)(C)C)c3ccncc3)n2)o1 (stereo not shown),1.4%
2,COc1ccc(S(=O)(=O)NCCc2cc3ccc(C)c(C)c3[nH]c2=O)cc1,15.5%
3,COCc1cc(N2CCOCC2)nc(-c2ccccc2)n1,16.1%
4,Cc1cc(C)cc(NC(=O)Cn2ncn3c(cc4ccccc43)c2=O)c1,3.78%
5,Cc1ccc(CN(C)C(=O)CCc2c[nH]c3ccccc23)o1,4.2%
6,O=C(CN1CCN(c2ccccn2)CC1)Nc1ccc(F)cc1.O=C(O)C(=O)O,-23.4%
7,CCOc1ncccc1C(=O)N1CCN(S(=O)(=O)c2ccc(Br)cc2Cl)CC1,6.01%
8,N[C@@H](Cc1ccccc1)C(=O)N1C[C@H]2C[C@@H](C1)c1cccc(=O)n1C2,12.1%
9,COc1cccc(C2(O)CC(C(F)(F)F)=NN2C(=O)c2ccccn2)c1 (stereo not shown),9.25%
10,Cc1cccc(C(=O)NNS(=O)(=O)c2ccccc2)c1O,9.23%
11,CN1/C(=C\C(=O)Nc2cccnc2)c2ccccc2CC1(C)C,6.92%
12,Nc1nc(=S)n(-c2ccccc2)[nH]1,12.5%
13,CC(C)(C)[C@H]1C=C(C(N)=O)O[C@@H](OCc2ccc(CO)cc2)C1,-0.154%
14,CCc1ccccc1NC(=S)N(CCc1ccncc1)C(C)C,-0.188%
15,Cc1ncc(CO)c2c1Oc1nc(-c3ccccc3)nc(SCC(=O)Nc3cccc(O)c3)c1C2,9.85%
16,CCOC(=O)[C@H]1CCC[C@@H](NS(=O)(=O)c2ccc(NC(C)=O)cc2)C1,8.9%
17,COc1ccc(-n2c3c(cc(C(=O)NCc4ccco4)c2=O)C(=O)CC(C)(C)C3)cc1,-5.72%
18,CS(=O)(=O)Nc1cccc2cccnc12,10.4%
